We go through 22 molecules from paper PMC12136788.

This is one part of the list.

The labels stand for the following.
T1: UNK ZnF1-3 (human, UniProt Q9C0B0 31-174)
T1 sequence: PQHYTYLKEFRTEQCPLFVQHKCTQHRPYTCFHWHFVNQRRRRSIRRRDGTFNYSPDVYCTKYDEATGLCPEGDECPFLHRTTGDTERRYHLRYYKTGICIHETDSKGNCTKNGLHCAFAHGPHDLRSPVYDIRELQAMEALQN

B1: chr1:109605286:109605287:-_ENSG00000197780_ENST00000461096|hu_mus|hu_hu_hu_mus_True|1_68 (ssRNA)
RNA: GGGAGUUCUACAGUCCGACGAUCAAGUUUCAGAGUAACAUUCAGUAACCUCUUUAAAUGCAAUUAUCCUUACUUUAAGCUAAGCAGAAUAAUAAUUUAAUACCGUAAGUGAACUACACACAAAGCCUGAACCGCGAAACUACACAACAGAGGAUUGAGCAUCA
B2: chr1:225611761:225611762:-_ENSG00000143815_ENST00000272163|hu_mus|hu_hu_hu_mus_True|1_38 (ssRNA)
RNA: GGGAGUUCUACAGUCCGACGAUCCCAGGCCAUCGGCCUCUGACCACUUCACCCUCAACAAACUUCCUACUUGGCAUUUUCUAAAAUUAGUCUGGCCCAGGUUCCGGGGGAACUCCAGCCACUCCAGGACAGUCACCCGCACAGCAACAGAGGAUUGAGCAUCA
B3: chr2:42472670:42472671:+_ENSG00000143924_ENST00000318522|hu_hu|FALSE|FALSE (ssRNA)
RNA: GGGAGUUCUACAGUCCGACGAUCCGUGACUCAAGAGCUGACAGGCGAUCUUGAACAUCAGAAGUACUUGCAGCAGAAAUACUAUCAUCGAGACUGCCGGCGAAACCGUCCAUCUUGCGGGGAAAGCGCCGGGCUCCGGGCUUACAACAGAGGAUUGAGCAUCA
B4: chr12:2981354:2981355:-_ENSG00000111206_ENST00000359843|hu_hu|FALSE|FALSE (ssRNA)
RNA: GGGAGUUCUACAGUCCGACGAUCGCGGGAGCCCAGUCCAUCAGAACUCAUCUUUCGAAGCCACUGGAUGUUGGAUAGGCUAUUGUUGAUAGUGCAGCCUGCUGCCUCACCAUCUGCACAGGUCUCCCGUUUCUGCUCGCAAAGCAACAGAGGAUUGAGCAUCA
B5: chr2:128510325:128510326:-_ENSMUSG00000014355_ENSMUST00000014499|mus_mus|FALSE|FALSE (ssRNA)
RNA: GGGAGUUCUACAGUCCGACGAUCGUACACUGCCAGUGCCUGGCUUUUACUCCCUUUGCUCCAGAUAACCAUGUUCCCAGCCACAUAGAGCUCUUCAUCGUAGUCAGCUGCAUCUCCAAUCUCACUCACACCUUUUCUUAACUGCAACAGAGGAUUGAGCAUCA
B6: 54674576_54675259_78_CDS_ENSG00000135486_ENST00000330752|human|control|control (ssRNA)
RNA: GGGAGUUCUACAGUCCGACGAUCCUCAAAAUGGCUCCUCAGGCUCUCAUCAGUUGUUUCAAAGCUCAACCCUCCAAUGAAGAGCUUCCUCAGCUGUUCGGGCUCUUUAGGAGACUCUGACUUAGACAUGACGGCAGGGUGAAGCAACAGAGGAUUGAGCAUCA
B7: chrX:45547847:45547848:-_ENSMUSG00000036985_ENSMUST00000037960|mus_mus|FALSE|FALSE (ssRNA)
RNA: GGGAGUUCUACAGUCCGACGAUCAGGGUCACUGAAACUUGUCCUCAACAGCGUGGCCAUGGAGAAAAGAAAGAGCAUAGCGGCAAACACAGGAAUGGCAGGAGACAGCUGAACAGCCAGGUAGCGACACUCGAAGGCAAAGAACAACAGAGGAUUGAGCAUCA
B8: chr3:10015032:10015033:+_ENSMUSG00000027533_ENSMUST00000029046|mus_mus|mus_mus_mus_hu_True|28_38 (ssRNA)
RNA: GGGAGUUCUACAGUCCGACGAUCGUUUUUACCAUCACAAGUGAUGAUACAAUCUGGCUUGGCCAUUGCGCCCAUUUUUCGCAAAGCUAUUCCCACUCCUAGCUCUUUCAUGUACUCAUCAAAGCCUUUGCUGUCCACCAGGCGCAACAGAGGAUUGAGCAUCA
B9: chr9:87430539:87430540:+_ENSG00000148053_ENST00000359847|hu_hu|motif|central (ssRNA)
RNA: GGGAGUUCUACAGUCCGACGAUCAAAAUGAUUGAAUUCAGCAAGUACAUUUAUGAUCUAUCUACAUUGUUAAAACAGCACGGAAAAUAAAAAUUUUUAAAAUGAUUAUCCAUUAUUUACAGAAAAUGUGGAAAAGAUGGCUUUCAACAGAGGAUUGAGCAUCA
B10: chr4:81121375:81121376:+_ENSG00000152784_ENST00000415738|hu_mus|motif|central (ssRNA)
RNA: GGGAGUUCUACAGUCCGACGAUCUACCCGGAAGAUGUAAGGUACUGUUCUCUUGUCCGUGGACUUGAGGGCUACGAAGGCGGUGCUGUCAUACAGGGAAGUAUGGCUCAGUACACAGGGACCGAAUAUGGCGUUCUCUGGGAUCAACAGAGGAUUGAGCAUCA
B11: chr11:77336104:77336105:-_ENSG00000074201_ENST00000525064|hu_mus|hu_hu_hu_mus_False|68_88 (ssRNA)
RNA: GGGAGUUCUACAGUCCGACGAUCCUCACACAUUGCUGUGAACAUCGCCUCCAACGCUGACUUAUCACUAGGCACAAAUCGAAAUUCAGAAAUGGGUUCAACAUCAUCAUUGUCUUCCUCAUCUUCAUCAGAGAGAGGUUCUUUCAACAGAGGAUUGAGCAUCA
B12: chrX:12171913:12171914:+_ENSMUSG00000031007_ENSMUST00000033313|perfect_dup|FALSE|FALSE (ssRNA)
RNA: GGGAGUUCUACAGUCCGACGAUCCCUGGUAUAGGCCAAUUUCCAUUUCGGAAAACAACAGACCCUGGUGAUUUUAAUAUACUAAACUCGUUCCCCAAAACACCCGCCACCAACGCCAGGAGCACGACAAACACAGCCAUGGUGCAACAGAGGAUUGAGCAUCA
B13: 93960447_93963424_2606_3pUTR_ENSMUSG00000020859_ENSMUST00000103168|mouse|control|control (ssRNA)
RNA: GGGAGUUCUACAGUCCGACGAUCGUACAAUUCCUUUCACAUGUACAAUACUGAGAAUUGAGUCUUUGAGCUUAAUGGAAUGGAGACAUUUCCUCCACUGGGCUACAGAUGAGUGGACAUACAAACAGCCAUUCUGAGCUCCAACAACAGAGGAUUGAGCAUCA
B14: chrX:98862621:98862622:+_ENSMUSG00000034160_ENSMUST00000044475|mus_hu|mus_mus_mus_hu_False|18_58 (ssRNA)
RNA: GGGAGUUCUACAGUCCGACGAUCCUGCAUCUCCUUUAGAGUGUUUCCCAUAUUAGAGUAGGCAUCAGCAAAGGUAGGACUAAUUCGAAUAGCCUCCUUAUAAUGCAUCAGAGCUUCCUGCAGCUUGCCCUGCUGCUGCAGUACCAACAGAGGAUUGAGCAUCA
B15: chr2:103616161:103616162:-_ENSMUSG00000027184_ENSMUST00000111147|mus_hu|motif|central (ssRNA)
RNA: GGGAGUUCUACAGUCCGACGAUCCUCAUCUACCUGCUCCUUUUCACCACUGGUGAACUGUGUUUCUGCCAUGAACUGUCGGUUUACAUACUCUGUUGAUUCAACUUCACUUUGCUCAGUGUACUCUUCUGCUGGCUCAGGUUCCAACAGAGGAUUGAGCAUCA
B16: chr12:110729878:110729879:+_ENSG00000174437_ENST00000539276|hu_hu|motif|central (ssRNA)
RNA: GGGAGUUCUACAGUCCGACGAUCUUCGAUGGCAUUUUCAGCAUUUCUUUCCUGCCAUACACCCACAAUUGCAUUGGCGGCGGAUAUGAGUAAAAUUACAAAAGGUUCUACAAAGGCUGUAAUUGUUUCUUCACCUUCUUCAAACAACAGAGGAUUGAGCAUCA
B17: chr14:78183846:78183847:+_ENSG00000119705_ENST00000557342|hu_hu|hu_hu_hu_mus_False|28_78 (ssRNA)
RNA: GGGAGUUCUACAGUCCGACGAUCUCUCAGAAAUCUUUCUUCAUCAGAUGUUUGAGCUGUUUGCGGAGCCUUUGCUCUUUGAGCUUGAACGUGGAUCUAUGGGAGGGCUAUAAUAUGCAGAAAAGGUAAUUUUUUUUUUAAAGACAACAGAGGAUUGAGCAUCA
B18: 29795611_29795731_792_3pUTR_ENSMUSG00000019715_ENSMUST00000019859|mouse|control|control (ssRNA)
RNA: GGGAGUUCUACAGUCCGACGAUCGCUGCAGGACCUCCUCUUGCAGGGAGUACAGGCUGCGCAGACGGACCUGACCUUCCUCCUUCCGAAGCUGCUCCUGCUCUGCCUGCUUCACACGCUGCUGCUCUGCCUCUCGAAGCUUUACAACAGAGGAUUGAGCAUCA
B19: chr13:24894569:24894570:+_ENSMUSG00000019132_ENSMUST00000019276|mus_mus|motif|central (ssRNA)
RNA: GGGAGUUCUACAGUCCGACGAUCCUGAUUAAUUCUUAGUUAUUUCAGAUUUCACUACUGCUAUGAACUGUCAGUGCUUUGCGGUUGAUUACACUUGGUGGUGAGCAAAGAGAAAAGUGCAAAAUCAGCAGAGAAAGAAGGGGACAACAGAGGAUUGAGCAUCA
B20: chr8:117878989:117878990:-_ENSG00000164754_ENST00000297338|hu_hu|hu_hu_hu_mus_True|8_28 (ssRNA)
RNA: GGGAGUUCUACAGUCCGACGAUCCCAGAGGCCCUCGUUUACUGAGGACAAAAUGUGCGUAGAACAUUUUUCUUAUUUGCUAUGAAAUAAGAAGAAACCUGGAUCUCCCGCUGGGAGCGGGAGGGGUUGGGUGGCCCGGGAGGGCAACAGAGGAUUGAGCAUCA
B21: 219081829_219081949_73_3pUTR_ENSG00000163466_ENST00000315717|human|control|control (ssRNA)
RNA: GGGAGUUCUACAGUCCGACGAUCCGAGCCGCCGCCGCCGCCGCCACUGCCGCUUCACCGACAAGCCCGGUCCCCGCCCAGCCCCCGGCUCUAGCCGGCCACUUCCGCUCUCACACCCACUUCCGCUCGCCGCCUGGACGCGCGCAACAGAGGAUUGAGCAUCA
B22: chr1:244855233:244855234:+_ENSG00000121644_ENST00000302550|hu_mus|hu_hu_hu_mus_True|28_28 (ssRNA)
RNA: GGGAGUUCUACAGUCCGACGAUCCAUCAGAUGGUAGGCGUUGCCCUUAUACUCUUUCCCCAGUUCUUCUACAAUUUUCUCUAUAUCAUCUUCUAGAAAGUCCGUACUCCCUAAAACAACAGCUUCUUUAAAUUUAAAUGUUUCCAACAGAGGAUUGAGCAUCA

The target in this experiment is T1, UNK ZnF1-3. Nature of the experiment: nsRBNS (natural sequence RNA bind-n-seq); RBNS binding buffer (assumed for nsRBNS): 25 mM Tris pH 7.5, 150 mM KCl, 3 mM MgCl2, 0.01% Triton X-100, 500 ug/ml BSA, 20 U/ml SUPERase-In, 4 C; UNK is unkempt and MSI1 is Musashi-1; names of the RNAs are library labels; protein concentration not given here; high values mean tight binding.
Consider B1, for which the binding signal came to 0.556 enrichment R. The result for B2 reads 1.18 enrichment R.

B3 came in with a binding signal of 1.34 enrichment R. The molecule B4 yielded a binding signal of 0.653 enrichment R. The result for B5 reads 0.907 enrichment R; that for B6, 0.995 enrichment R; that for B7, 2.91 enrichment R. To B8 belongs 0.679 enrichment R; to B9, 1.45 enrichment R. For B10, the binding signal stood at 1.08 enrichment R. The result for B11 reads 1.06 enrichment R; that for B12, 1.61 enrichment R. In turn, B13 came in with a binding signal of 1.54 enrichment R. The result for B14 reads 0.948 enrichment R; that for B15, 0.409 enrichment R; that for B16, 0.894 enrichment R. The result for B17 reads 1.6 enrichment R; that for B18, 0.636 enrichment R. To B19 belongs 1.35 enrichment R. The molecule B20 displayed a binding signal of 1.14 enrichment R. Molecule B21 registered a binding signal of 1.55 enrichment R. The result for B22 reads 1.44 enrichment R.
